Test results: article PMC12494564, “CLIC5A binds to and stabilizes the open and active conformation of ezrin” (The Journal of Biological Chemistry, 2025)
No constants are given. Whether binding was seen depends on the method and setting. For some of these results: Binding seen in cells or lysates may run through a third protein. Some results given as binding are weak or reduced against the parent protein; the word gives no strength.

The chains behind the UniProt entries cited, without tags or fusion partners. Where a name states a change or a piece, a line headed by the entry shows the natural chain unless it says otherwise. A line that says so, or that is headed by a name, gives the form on record, which may keep a tag or linker. Residues count along the entry.
CLIC5A_(22-251), N-terminal deletion mutant, yeast two-hybrid bait (Q9NZA1, residues 181-410): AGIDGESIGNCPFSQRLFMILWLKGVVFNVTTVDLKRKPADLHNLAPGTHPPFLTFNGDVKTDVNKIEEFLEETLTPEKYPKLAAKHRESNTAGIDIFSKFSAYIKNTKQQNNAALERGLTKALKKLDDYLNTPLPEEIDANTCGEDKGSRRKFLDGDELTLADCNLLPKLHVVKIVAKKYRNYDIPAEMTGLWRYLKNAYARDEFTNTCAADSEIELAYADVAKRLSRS
GST-CLIC5A (Q9NZA1, form named): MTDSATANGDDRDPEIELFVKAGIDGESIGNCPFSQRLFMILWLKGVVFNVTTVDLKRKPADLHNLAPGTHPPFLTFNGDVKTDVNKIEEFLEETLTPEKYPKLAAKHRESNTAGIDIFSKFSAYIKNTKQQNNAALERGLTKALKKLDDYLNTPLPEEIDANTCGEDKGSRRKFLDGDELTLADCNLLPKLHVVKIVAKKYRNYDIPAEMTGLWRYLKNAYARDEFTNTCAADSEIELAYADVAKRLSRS
UniProt P15311: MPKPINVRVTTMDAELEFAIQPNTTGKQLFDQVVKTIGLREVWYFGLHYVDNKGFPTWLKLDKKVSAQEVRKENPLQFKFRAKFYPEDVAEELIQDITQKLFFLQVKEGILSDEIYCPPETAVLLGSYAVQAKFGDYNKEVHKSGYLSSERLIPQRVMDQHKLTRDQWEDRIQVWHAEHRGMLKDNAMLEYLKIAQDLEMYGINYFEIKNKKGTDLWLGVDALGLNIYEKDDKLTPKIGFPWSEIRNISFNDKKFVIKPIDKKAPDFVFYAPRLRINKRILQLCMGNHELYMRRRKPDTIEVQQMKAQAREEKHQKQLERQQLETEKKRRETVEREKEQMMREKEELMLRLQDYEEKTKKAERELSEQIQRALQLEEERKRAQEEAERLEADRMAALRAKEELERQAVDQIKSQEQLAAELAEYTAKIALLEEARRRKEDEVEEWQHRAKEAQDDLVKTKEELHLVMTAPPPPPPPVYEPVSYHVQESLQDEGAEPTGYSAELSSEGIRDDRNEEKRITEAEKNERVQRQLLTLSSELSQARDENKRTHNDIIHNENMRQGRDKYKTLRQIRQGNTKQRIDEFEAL
phosphomimetic GFP-ezrin_(432-586) (T567D) expressed in COS-7 cells (P15311, form named): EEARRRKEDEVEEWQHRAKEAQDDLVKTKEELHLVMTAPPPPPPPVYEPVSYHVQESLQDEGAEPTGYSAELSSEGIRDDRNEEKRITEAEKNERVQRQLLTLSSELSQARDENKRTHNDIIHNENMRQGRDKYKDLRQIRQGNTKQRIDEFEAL
UniProt P26038: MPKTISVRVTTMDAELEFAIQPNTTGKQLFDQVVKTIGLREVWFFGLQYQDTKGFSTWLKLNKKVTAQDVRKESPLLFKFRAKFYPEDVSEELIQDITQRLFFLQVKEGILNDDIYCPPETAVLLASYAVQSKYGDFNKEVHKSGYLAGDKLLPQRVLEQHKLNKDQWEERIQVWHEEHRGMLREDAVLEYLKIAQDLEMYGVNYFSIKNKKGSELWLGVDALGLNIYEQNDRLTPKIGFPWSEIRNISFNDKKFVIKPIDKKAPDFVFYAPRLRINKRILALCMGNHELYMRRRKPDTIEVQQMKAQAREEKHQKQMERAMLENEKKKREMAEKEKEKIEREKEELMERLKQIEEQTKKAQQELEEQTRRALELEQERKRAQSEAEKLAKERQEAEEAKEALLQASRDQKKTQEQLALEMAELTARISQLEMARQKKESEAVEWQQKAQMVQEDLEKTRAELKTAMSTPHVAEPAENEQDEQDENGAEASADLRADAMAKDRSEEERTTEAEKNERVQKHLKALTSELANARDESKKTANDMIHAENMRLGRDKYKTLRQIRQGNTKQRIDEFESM
UniProt P35241: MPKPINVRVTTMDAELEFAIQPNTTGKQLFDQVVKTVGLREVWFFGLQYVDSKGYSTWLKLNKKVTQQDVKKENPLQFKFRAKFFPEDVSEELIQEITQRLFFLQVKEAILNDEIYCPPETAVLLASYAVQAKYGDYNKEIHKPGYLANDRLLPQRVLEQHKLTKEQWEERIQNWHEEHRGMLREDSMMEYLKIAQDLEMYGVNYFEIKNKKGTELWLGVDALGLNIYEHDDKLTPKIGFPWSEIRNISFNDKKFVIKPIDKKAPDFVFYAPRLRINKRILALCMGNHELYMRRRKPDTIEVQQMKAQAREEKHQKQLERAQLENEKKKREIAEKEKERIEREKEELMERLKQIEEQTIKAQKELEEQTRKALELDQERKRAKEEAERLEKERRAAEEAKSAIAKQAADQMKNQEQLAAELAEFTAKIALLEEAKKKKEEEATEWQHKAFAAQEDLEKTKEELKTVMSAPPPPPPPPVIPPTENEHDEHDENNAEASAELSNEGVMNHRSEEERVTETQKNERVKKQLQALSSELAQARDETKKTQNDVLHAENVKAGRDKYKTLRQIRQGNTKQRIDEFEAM
UniProt P26043, residues 330-583: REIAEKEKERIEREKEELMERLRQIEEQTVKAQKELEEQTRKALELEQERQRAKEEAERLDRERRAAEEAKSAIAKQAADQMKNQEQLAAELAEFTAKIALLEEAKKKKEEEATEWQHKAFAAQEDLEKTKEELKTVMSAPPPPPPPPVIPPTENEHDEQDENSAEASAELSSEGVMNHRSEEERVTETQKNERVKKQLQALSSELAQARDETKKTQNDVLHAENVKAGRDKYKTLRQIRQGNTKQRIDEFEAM

Columns and labels:
GST-CLIC5A (human) [1] = target: GST-CLIC5A (human) (UniProt Q9NZA1); assay: pull-down; GST-CLIC5A with glutathione beads, 2 h in the cold room, with cell lysates holding endogenous or transiently expressed proteins; lysis buffer 1% Triton X-100, 20 mM Hepes pH 7.4, 0.6 M KCl, 1 mM EDTA; some cells treated with calyculin A (50 nM) before lysis; Western blot; only the target purified
GST-CLIC5A (human) [2] = target: GST-CLIC5A (human) (UniProt Q9NZA1); assay: pull-down; immobilized GST-CLIC5A with HA-ezrin fragments produced by in vitro transcription/translation; Western blot; only the target purified
[3] = target: GFP-CLIC5A expressed in COS-7 cells (human) (UniProt Q9NZA1); assay: co-IP; HA-ezrin constructs coexpressed with GFP-CLIC5A in COS-7 cells; goat anti-GFP antibody and protein G plus/protein A-agarose; lysis buffer 50 mM Tris-HCl pH 7.4, 150 mM NaCl, 1.0% NP-40, 0.5% sodium deoxycholate, 100 nM calyculin-A
[4] = target: CLIC5A, full length (aa 1-251), yeast two-hybrid bait (human) (UniProt Q9NZA1); assay: two-hybrid; GAL4-based Matchmaker Gold Y2H; CLIC5A constructs as bait (pGBKT7, Y2HGold), ERM constructs as prey (pGAD-T7, Y187), mated; DDO, DDO/X (X-α-Gal) and DDO/X/A (aureobasidin A) plates, 30 °C
[5] = target: CLIC5A, bait of the Hybrigenics yeast two-hybrid screen (human) (UniProt Q9NZA1); assay: two-hybrid; yeast two-hybrid protein domain screen by Hybrigenics; CLIC5A as bait, adult mouse kidney library as prey
[6] = target: CLIC5A_(22-251), N-terminal deletion mutant, yeast two-hybrid bait (human) (UniProt Q9NZA1); assay: two-hybrid; GAL4-based Matchmaker Gold Y2H; CLIC5A constructs as bait (pGBKT7, Y2HGold), ERM constructs as prey (pGAD-T7, Y187), mated; DDO, DDO/X (X-α-Gal) and DDO/X/A (aureobasidin A) plates, 30 °C
[7] = target: CLIC5A_(1-232), C-terminal deletion mutant, yeast two-hybrid bait (human) (UniProt Q9NZA1); assay: as above

## GFP-ezrin_(432-586) expressed in COS-7 cells (from UniProt P15311 432-586) (domain or fragment)
GST-CLIC5A (human) [1]
  binding: binds

## phosphomimetic GFP-ezrin_(432-586) (T567D) expressed in COS-7 cells (from UniProt P15311 432-586) (domain or fragment)
GST-CLIC5A (human) [1]
  binding: binds

## HA-ezrin_(297-586), in vitro transcribed and translated (from UniProt P15311 297-586) (domain or fragment)
GST-CLIC5A (human) [2]
  binding: binds

## HA-ezrin_(432-586), in vitro transcribed and translated (from UniProt P15311 432-586) (domain or fragment)
GST-CLIC5A (human) [2]
  binding: binds

## HA-ezrin_(432-570) expressed in COS-7 cells (from UniProt P15311 432-570) (domain or fragment)
[3]
  binding: no binding

## endogenous moesin of HeLa cells (from UniProt P26038 1-577)
GST-CLIC5A (human) [1]
  binding: binds

## endogenous radixin of HeLa cells (from UniProt P35241 1-583)
GST-CLIC5A (human) [1]
  binding: binds

## HA-ezrin_(432-586) expressed in COS-7 cells (from UniProt P15311 432-586) (domain or fragment)
[3]
  binding: binds

## ezrin_(550-586), yeast two-hybrid prey (from UniProt P15311 550-586) (domain or fragment)
[4]
  binding: binds weakly

## GFP-ezrin_(432-570) expressed in COS-7 cells (from UniProt P15311 432-570) (domain or fragment)
GST-CLIC5A (human) [1]
  binding: no binding

## ezrin_(432-570), ezrin C terminus without the last 16 amino acids, yeast two-hybrid prey (from UniProt P15311 432-570) (domain or fragment)
[4]
  binding: no binding

## radixin C-terminal domain (aa 330-583), prey from the mouse kidney library (from UniProt P26043 330-583) (domain or fragment)
[5]
  binding: binds

## radixin_(432-583), yeast two-hybrid prey (from UniProt P35241 432-583) (domain or fragment)
[4]
  binding: binds

## N-terminal FERM domain of ezrin (ezrin_(1-296)), yeast two-hybrid prey (from UniProt P15311 1-296) (domain or fragment)
[4]
  binding: no binding

## ezrin_(432-586), yeast two-hybrid prey (from UniProt P15311 432-586) (domain or fragment)
[6]
  binding: no binding
[7]
  binding: no binding
[4]
  binding: binds

## moesin_(432-577), yeast two-hybrid prey (from UniProt P26038 432-577) (domain or fragment)
[4]
  binding: binds

## HA-ezrin_(432-570), in vitro transcribed and translated (from UniProt P15311 432-570) (domain or fragment)
GST-CLIC5A (human) [2]
  binding: no binding
